The whole screen tested about 360,000 compounds, of which about 17,000 (4.7%) were called active. The inconclusive results got no clear call from the source; some entries with a clear call stand among them for comparison. Cut-off read from the data, not from the text of the source: active = activity change below about -50%; inconclusive = mostly about -30% to -49%; inactive = weaker than that.
test: qHTS for Inhibitors of Inflammasome Signaling: IL-1-beta AlphaLISA Primary Screen; conditions: THP-1 LPS/ATP IL-1B secretion, 16 h; at 57.5 µM, hits give low values
Outline: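 Secreted IL-1B measured by AlphaLISA bead assay after 16 h compound exposure of THP-1 cells; compounds (final up to 57.5 uM) added 1 h before LPS (250 ng/mL) and ATP (1.25 mM) stimulation; lower signal means less secretion.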
% is set by controls: 0 for no effect and ±100 for the full control effect.

| Structure (SMILES) | activity change |
| --- | --- |
| CN(C)c1ccc(NC(=O)/C=C/c2ccccc2Cl)cc1 | inactive: -13.9% |
| Nc1ccc(N2CCCC2)c(S(=O)(=O)Nc2cccc(C(F)(F)F)c2)c1 | inconclusive: -33.3% |
| CCOC(=O)c1cnc(SCC(=O)OCC(=O)NC2CCS(=O)(=O)C2)nc1N (configuration not stated) | inactive: -4.3% |
| Cc1cccc(C(=O)Nc2sc3c(c2C(=O)O)CCC3)c1 | inconclusive: -49% |
| O=C(NCc1ccccc1)c1cccc(COc2ccc(Cl)cc2)c1 | inconclusive: -42.7% |
| COc1ccc(C2C(C(=O)O)CCC(=O)N2c2ccc(C)cc2)cc1OC (configuration not stated) | inactive: 9.33% |
| COc1cc(-c2csc(N3CCOCC3)n2)cc(OC)c1OC | inconclusive: -46% |
| O=C(COc1ccc(Br)cc1CNCCc1ccccc1)NCc1ccccc1 | inconclusive: -43.5% |
| CCCn1ncc(C(=O)NC2CCCN(Cc3ccc(Cl)cc3)C2)c1C (configuration not stated) | inconclusive: -40.8% |
| CCOC(=O)C1CCN(c2nc3c(C)cccn3c(=O)c2/C=C(\C#N)S(=O)(=O)c2ccccc2)CC1 | inactive: -14.2% |
| CC(C)OCCCNC(=O)C1CCN(S(=O)(=O)N2CCCC2)CC1 | inactive: -8.68% |
| O=C1c2ccccc2C(=O)c2c1ccc(C(=O)N1CCCCC1)c2NCCO | inactive: -7.29% |
| CCOc1ccc2nc(NCCNC(=O)C(C)C)c(C)cc2c1 | inactive: -23.6% |
| COc1ccc(N=C(c2ccccc2)c2c(C)[nH]n(-c3ccccc3)c2=O)c(OC)c1 | inconclusive: -46.8% |
| O=C(CSc1cccs1)Nc1ccc2ccccc2c1 | inconclusive: -37.1% |
| COc1cc(C(=O)Nc2nncs2)cc(OC)c1OC | inactive: 29.4% |
| Fc1ccc(N2CCN(Cc3nnc(-c4ccccc4)o3)CC2)cc1 | inactive: 9.76% |
| COC(=O)c1ccc(Cl)c(NS(=O)(=O)c2ccc3c(c2)OCCO3)c1 | inactive: 3.46% |
| Cc1ccc2nc(SCC(=O)Nc3cccc(Cl)c3)nc(=O)n2c1 | inactive: -21.2% |
| Cc1ccc2[nH]c(=O)c(CN(Cc3cccs3)Cc3nnnn3CC3CCCO3)cc2c1 (configuration not stated) | inconclusive: -35.2% |
| Cc1ccc(C)c(OCC(O)CN2CCN(CCN3C(=O)c4cccc5cccc(c45)C3=O)CC2)c1 (configuration not stated) | active: -102% |
| O=C(c1cccs1)N1CCN=C1SCc1ccccc1F | inconclusive: -43.5% |

| Structure (SMILES) | activity change |
| --- | --- |
| CCOc1cc(N2CCOCC2)c(OCC)cc1NC(=O)COC(=O)CCOc1cc(C)ccc1C | active: -85.9% |
| COc1ccc(C(=O)NC(=S)Nc2ccccc2N2CCN(S(C)(=O)=O)CC2)cc1OC | inconclusive: -36.9% |
| COc1cc(N)c2ncccc2c1Br | inconclusive: -44% |
| C=CCNC(=O)/C(C#N)=C/c1ccccc1[N+](=O)[O-] | active: -62% |
| CN(C)S(=O)(=O)c1cccc(N=C2NN=C(c3ccccc3)CS2)c1 | active: -57.4% |
| N=c1sccn1CC(=O)NCCc1ccc(Cl)cc1Cl | inactive: -3.45% |
| O=C(COC(=O)c1ccccc1NS(=O)(=O)c1cccs1)NCC12CC3CC(CC(C3)C1)C2 | inconclusive: -37.2% |
| O=[N+]([O-])c1cc(Br)c(Nc2ccccc2)c([N+](=O)[O-])c1 | active: -98.1% |
| S=C(NCCNC(=S)Nc1ccccc1Cl)Nc1ccccc1Cl | inconclusive: -43% |
| N#Cc1ccc2ccn(CC(=O)NCc3ccco3)c2c1 | inconclusive: -41% |
| CC1Cc2cc(S(=O)(=O)N3CCN(c4ccccc4)CC3)ccc2N1C(=O)C1CC1 (configuration not stated) | inactive: -5.69% |
| COc1ccc(-c2csc(CCn3nc(C)cc3C)n2)cc1 | inconclusive: -36.5% |
| CCOc1cc(C(c2c(C)[nH][nH]c2=O)c2c(C)[nH][nH]c2=O)cc(Br)c1OC | inconclusive: -42% |
| C=CCN1C(=O)/C(=C/c2ccc(OC(C)=O)c(OCC)c2[N+](=O)[O-])SC1=S | active: -75.8% |
| COc1ccc(N2CC(C)Cn3c2nc2c3c(=O)n(Cc3ccc(C)cc3)c(=O)n2C)c(OC)c1 (configuration not stated) | inconclusive: -34.6% |
| O=C(NCC1CCCO1)c1cc2c([nH]c3ccccc32)c(-c2cccc(Cl)c2)n1 (configuration not stated) | active: -65.4% |
| COc1ccc(-c2csc(Nc3ccc(C)cn3)n2)cc1OC | inconclusive: -31.5% |
| O=C(Cc1ccc(Br)cc1)Nc1nc2ccccc2[nH]1 | inactive: 17.8% |
| O=C(CCC(=O)N1CCc2ccccc2C1)NCCc1ccc(Cl)cc1 | inconclusive: -34.4% |
| Cc1ccc(N/C(N)=N/c2nc(C)cc(N3CCCCC3)n2)c(C)c1 | active: -103% |
| COc1ccc(CN(C)S(=O)(=O)c2c(C)noc2C)cc1OC | inactive: 34.5% |
| Cc1ccc(C(=O)Nc2ccccc2C(=O)NCc2ccco2)cc1 | inactive: -15.9% |

| Structure (SMILES) | activity change |
| --- | --- |
| O=C(NCC1CC1)c1ccc2c(c1)S(=O)(=O)c1cc(Cl)ccc1C2=O | inconclusive: -41.2% |
| CCCn1c(CCc2ccccc2)nnc1SCC(=O)N1CCCC1 | inconclusive: -30.8% |
| COc1ccc(S(=O)(=O)N2CCOCC2)cc1N=Nc1sc(N)nc1-c1ccccc1 | inconclusive: -41.2% |
| O=C(C1=C[C@@H](c2ccc(Br)cc2)C[C@@H](OCCCCO)O1)N1CCN(Cc2ccc3c(c2)OCO3)CC1 | inconclusive: -36.1% |
| Cc1c(C(=O)N/N=C/c2ccoc2)cccc1[N+](=O)[O-] | inactive: 54.1% |
| C=CCN=c1scc(-c2ccccc2)n1/N=C/c1ccccn1 | inconclusive: -34.7% |
| Nc1ccc(S(=O)C(F)(F)F)cc1 (configuration not stated) | inactive: 0% |
| O=C(CCS(=O)(=O)c1ccc(Cl)cc1)N1CCN(c2ccccc2F)CC1 | inactive: 40.9% |
| Cc1cc(C)n(CCC(=O)N/N=C/c2ccccc2O)n1 | inactive: 27.8% |
| Cc1cc(O)c(-c2cc(C(=O)Nc3ccc(S(=O)(=O)N4CCOCC4)cc3)[nH]n2)cc1C | active: -105% |
| O[C@@H]1COC(Nc2ccc(N=Nc3ccccc3)cc2)C[C@@H]1O (some centres not stated) | inconclusive: -38% |
| Cn1c(-[n+]2c(-c3ccccc3)cc(-c3ccccc3)cc2-c2ccccc2)nc2c([N+](=O)[O-])cccc21 | active: -62.1% |
| Cc1cc2cc(CCNC(=O)c3ccc(S(=O)(=O)N4CCOCC4)cc3)c(=O)[nH]c2cc1C | inconclusive: -32.7% |
| COc1ccccc1N1CCN(C(CNS(C)(=O)=O)c2cccnc2)CC1 (configuration not stated) | inactive: 13.5% |
| Cn1cc(CN2CCCC(C(=O)c3ccc(-c4ccccc4)c(F)c3)C2)cn1 (configuration not stated) | active: -197% |
| O=C(C=Cc1ccccn1)c1ccccc1 | active: -97.6% |
| Cc1ccc(Oc2cnn(-c3ccccc3)c(=O)c2Br)cc1 | inconclusive: -44.1% |
| Cc1ccc2cc3c(NC(=O)c4cccnc4)nn(C)c3nc2c1 | inactive: -10.3% |
| Cc1nc2c(OCc3cccc(Cl)c3)cccn2c1N(C)CC1CC1 | inconclusive: -40.5% |
| CCc1ccc(-c2cc(C(F)(F)F)n3nc(C(=O)Nc4c(C)nn(Cc5ccccc5Cl)c4C)cc3n2)s1 | inactive: -3.67% |
| N#Cc1cccc(NCC(=O)Nc2cccc(S(=O)(=O)N3CCCCC3)c2)c1 | inconclusive: -43.6% |
| CCOC(=O)N1CCN(C(=O)CN(C)S(=O)(=O)c2ccc(Cl)cc2)CC1 | inactive: 26.9% |

| Structure (SMILES) | activity change |
| --- | --- |
| O=C(OCC(=O)N1CCN(C(=O)c2ccco2)CC1)c1cc(-c2ccc(F)cc2)nc2ccccc12 | active: -51.4% |
| NC(=O)c1c(NC(=O)c2cccs2)sc2c1CCCCCC2 | active: -84.5% |
| CCN(CC)C(=O)Oc1ccc2c(c1)O/C(=C\c1ccco1)C2=O | inconclusive: -38.3% |
| OC[C@@H]1CCCN1Cc1cn(-c2ccccc2)nc1-c1ccc2c(c1)OCO2 | inconclusive: -32.3% |
| Cc1nnc(-c2ccc(Oc3ccc(Cl)cc3)c([N+](=O)[O-])c2)o1 | inactive: 26.5% |
| Cc1ccc(CS(=O)Cc2ccc(C(=O)NCCCc3ccccc3)o2)cc1 (configuration not stated) | inconclusive: -37.1% |
| COc1cc2c(cc1OC)C(c1cc(Br)ccc1O)N(C(C)=O)CC2 (configuration not stated) | inactive: -0.997% |
| COC(=O)c1c(NC(=O)c2ccn(C)n2)sc2c1CCC2 | inconclusive: -30.1% |
| CN1C(=O)c2ccccc2Sc2ccc(NC(=O)NC3CC3)cc21 | inactive: -1.1% |
| N#Cc1ccc(C(C(=O)NCc2ccccc2)n2c(=O)c(-c3ccco3)nc3ccccc32)cc1 (configuration not stated) | inconclusive: -39% |
| Nc1nnc2cc(Cl)ccc2n1 | inconclusive: -39.9% |
| CCCCN1CC[C@H]2C=CC[C@@H](C(=O)Nc3ccc(Cl)cc3Cl)[C@H]2C1=O | inactive: -19.4% |
| N=C(c1ccc([N+](=O)[O-])cc1)N1CCCCCC1 | inactive: 7.79% |
| Cc1cc(F)ccc1-c1cc(C(=O)NCc2ccco2)[nH]n1 | inconclusive: -48.7% |
| CC1(C)CC(=O)C=C(c2ccc(-c3ccc(S(C)(=O)=O)cc3)cc2)C1=O | inactive: 23.9% |
| COc1cccc(N2CCN(C(=O)c3ccc4nc(N5CCCCC5)sc4c3)CC2)c1 | inconclusive: -42.3% |
| CCOC(=O)C1=CCN(S(=O)(=O)c2ccccc2C)C1c1cccc(C)c1 (configuration not stated) | inactive: 0% |
| COC(=O)C1C(=O)c2c([nH]c(C(=O)OCCSC)c2C)CC1C (configuration not stated) | inconclusive: -31.7% |
| CCCCc1nc2ccccc2c(NC(=O)CN(CC)CC)c1CCC | inconclusive: -39.9% |
| COc1ccc(C)cc1NC(=O)COC(=O)c1c(-c2ccccc2)noc1C | inconclusive: -31.1% |
| C#CCOCCOCCOCCNc1nc(N2CCN(C(=O)[C@H](Cc3cc4ccccc4[nH]3)n3cc([C@@H](N)Cc4ccc(O)cc4)nn3)CC2)nc(N2CCN(C(=O)[C@H](Cc3cc4ccccc4[nH]3)n3cc([C@@H](N)CC(C)C)nn3)CC2)n1 | inconclusive: -33.7% |

— PubChem BioAssay AID743279 (National Center for Advancing Translational Sciences (NCATS), 2014)
